# Among all 310,000 compounds or so, about 14,000 (4.5%) showed an effect of 50% or more. The effect is printed as a negative number. Some of the results follow.
# Molecular target: human ether-à-go-go-related gene (hERG) potassium channel (human, UniProt Q12809)
# Assay: primary screen, population patch clamp on CHO cells stably expressing hERG
# 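Note: peak tail current of the secondary pulse compared with the same well before compound.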
# human ether-à-go-go-related gene (hERG) potassium channel, sequence (Q12809 whole entry, looked up): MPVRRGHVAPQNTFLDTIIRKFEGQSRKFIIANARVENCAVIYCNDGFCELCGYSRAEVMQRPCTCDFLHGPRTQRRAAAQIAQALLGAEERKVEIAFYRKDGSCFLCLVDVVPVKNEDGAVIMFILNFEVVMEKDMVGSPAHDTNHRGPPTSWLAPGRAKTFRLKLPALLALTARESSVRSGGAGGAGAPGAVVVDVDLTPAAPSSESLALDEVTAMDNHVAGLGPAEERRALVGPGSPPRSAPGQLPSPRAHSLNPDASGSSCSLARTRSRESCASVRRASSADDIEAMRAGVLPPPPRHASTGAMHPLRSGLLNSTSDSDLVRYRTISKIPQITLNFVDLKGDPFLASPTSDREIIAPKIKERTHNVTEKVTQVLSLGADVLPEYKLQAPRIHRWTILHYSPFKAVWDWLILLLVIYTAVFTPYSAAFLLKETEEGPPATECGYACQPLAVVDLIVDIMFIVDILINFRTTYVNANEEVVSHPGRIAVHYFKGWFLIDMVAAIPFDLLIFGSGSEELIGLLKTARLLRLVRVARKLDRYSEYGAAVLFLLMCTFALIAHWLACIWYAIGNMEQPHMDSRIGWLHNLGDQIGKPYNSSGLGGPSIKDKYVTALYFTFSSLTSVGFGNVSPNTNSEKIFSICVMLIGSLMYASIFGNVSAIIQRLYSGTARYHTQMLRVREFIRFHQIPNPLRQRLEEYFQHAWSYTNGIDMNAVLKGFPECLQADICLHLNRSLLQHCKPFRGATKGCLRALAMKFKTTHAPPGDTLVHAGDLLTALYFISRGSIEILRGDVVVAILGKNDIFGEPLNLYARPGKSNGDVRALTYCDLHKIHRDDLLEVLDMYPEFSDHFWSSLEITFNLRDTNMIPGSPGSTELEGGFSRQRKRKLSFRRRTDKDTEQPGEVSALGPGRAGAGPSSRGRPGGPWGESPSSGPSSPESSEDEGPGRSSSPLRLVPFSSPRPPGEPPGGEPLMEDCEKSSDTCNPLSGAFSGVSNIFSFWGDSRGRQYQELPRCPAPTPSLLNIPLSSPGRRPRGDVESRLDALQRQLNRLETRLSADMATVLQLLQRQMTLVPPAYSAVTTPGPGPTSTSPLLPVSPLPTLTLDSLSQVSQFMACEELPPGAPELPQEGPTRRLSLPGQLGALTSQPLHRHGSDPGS
row,SMILES,"hERG current change (%, negative = inhibition) at 10uM"
1,O=C(CSc1nnc(-c2cccnc2)s1)Nc1cccc(C(=O)O)c1,2.24%
2,C=C(C)C(=O)Nc1cccc(C2=NOC3(C2)C[C@H](C(N)=O)N(C(=O)c2ccccc2C(=O)c2ccccc2)C3)c1 (stereo partly shown),-9.31%
3,CCSc1nnc(NC(=O)CN(C)S(=O)(=O)c2ccc(F)cc2)s1,-26.3%
4,CN1C(C(=O)NCc2ccc(OC(F)(F)F)cc2)CC2Cn3c(nc4cc5ccccc5cc43)C21 (stereo not shown),-69.4%
5,CSc1ncccc1C(=O)OCC(=O)c1ccccc1Br,13.5%
6,Cc1cc2ncn(C(=O)N3CCCCCC3)c2cc1C,3.41%
7,Cc1ccccc1NCc1ccccc1O.Cl,-0.966%
8,CCCOC(=O)C(C)n1cnc2sc(C)c(C)c2c1=O (stereo not shown),-3.15%
9,COc1ccc(C(=O)c2sc(Nc3cccc(OC)c3)c(C(=O)Nc3cccc(C)c3C)c2N)cc1,4.75%
10,COc1ccccc1CNC(=O)C/C(C)=N/NC(=O)Cc1ccc(OC)c(OC)c1,12.2%
11,COc1ccc(C(=O)NCCCNC(=O)c2cc3ccccc3[nH]2)cc1OC,-15.8%
12,Cc1ccc(S(=O)(=O)N2CCN(S(=O)(=O)N(C)C)CC2)c(C)c1,-0.574%
13,CN1CCN(CC(=O)N(Cc2c(C#N)c3ccccc3n2C)c2ccccc2)CC1,-14.7%
14,O=C(NCc1cccc(F)c1)C1CCC(=O)N(CCCN2CCOCC2)C1 (stereo not shown),25.7%
15,Cc1nc(SCC(=O)O)n[nH]1,-4.54%
16,CC(=O)Nc1cccc(NC(=O)CSc2nccn2Cc2ccc(F)cc2)c1,0.742%
17,C/C(=N\Nc1ccc(C)c(Cl)c1)c1ccncc1,24.8%
18,Cc1ncc(CN2CCC(CO)(CCc3ccccc3)CC2)s1,-60.4%
19,Cc1cc(=O)[nH]c2c3ccccc3nn12,13.2%
20,Cc1ccc(NC(=O)Nc2ccccc2)cc1[N+](=O)[O-],6.95%
21,CCOC(=O)N1CCN(S(=O)(=O)c2ccc(C(=O)N(CCCN(C)C)c3nc4ccc(OC)cc4s3)cc2)CC1.Cl,-73.5%
22,CCOC(=O)C(=O)Nc1nnc(SCc2ccc(F)cc2)s1,1.7%
23,COc1cccc(NC(=O)c2ccc(S(=O)(=O)N3CCCCC3)cc2)c1,-7.75%
24,N#Cc1ccc(-c2csc(NC(=O)C3CC3)n2)cc1,14.5%
25,CC(=O)CN1Cc2ccccc2/C1=N\C(=O)Nc1ccccc1,11.7%
